The other results are listed elsewhere or left out.
Key:
Assay in all cases: glycan array binding signal (z-score within array); higher = stronger binding
Details in all cases: glycan notation: IUPAC condensed, linker removed
[1] = molecular target: Gal(b1-4)GlcNAc(b1-2)[Gal(b1-4)GlcNAc(b1-6)]Man(a1-6)[GlcNAc(b1-4)][Gal(b1-4)GlcNAc(b1-2)Man(a1-3)]Man(b1-4)GlcNAc(b1-4)GlcNAc
Outline: (§1)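 Arrays were curated from the Consortium for Functional Glycomics database, 3228 in total, and kept only where the protein sequence was available. Binding is expressed as a within-array Z-score. This score was averaged across arrays of the same protein sequence at different concentrations or buffers and across linkers, and negative values can be read as non-binding.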

[2] = molecular target: Gal(b1-4)GlcNAc(b1-2)[Gal(b1-4)GlcNAc(b1-6)]Man(a1-6)[GlcNAc(b1-4)][Gal(b1-4)GlcNAc(b1-2)[Gal(b1-4)GlcNAc(b1-4)]Man(a1-3)]Man(b1-4)GlcNAc(b1-4)[Fuc(a1-6)]GlcNAc
Outline: as §1

[3] = molecular target: Gal(b1-4)GlcNAc(b1-3)Gal(b1-3)GalNAc
Outline: as §1

[4] = molecular target: Gal(b1-4)GlcNAc(b1-3)Gal(b1-3)GlcNAc
Outline: as §1

[5] = molecular target: Gal(b1-4)GlcNAc(b1-3)Gal(b1-4)Glc
Outline: as §1

[6] = molecular target: Gal(b1-4)GlcNAc(b1-3)Gal(b1-4)GlcNAc
Outline: as §1

[7] = molecular target: Gal(b1-4)GlcNAc(b1-3)Gal(b1-4)GlcNAc(b1-2)Man(a1-3)[Gal(b1-4)GlcNAc(b1-3)Gal(b1-4)GlcNAc(b1-2)Man(a1-6)]Man(b1-4)GlcNAc(b1-4)GlcNAc
Outline: as §1

[8] = molecular target: Gal(b1-4)GlcNAc(b1-3)Gal(b1-4)GlcNAc(b1-2)Man(a1-3)[Gal(b1-4)GlcNAc(b1-3)Gal(b1-4)GlcNAc(b1-2)Man(a1-6)]Man(b1-4)GlcNAc(b1-4)[Fuc(a1-6)]GlcNAc
Outline: as §1

[9] = molecular target: Gal(b1-4)GlcNAc(b1-3)Gal(b1-4)GlcNAc(b1-2)[Gal(b1-4)GlcNAc(b1-3)Gal(b1-4)GlcNAc(b1-6)]Man(a1-6)[Gal(b1-4)GlcNAc(b1-3)Gal(b1-4)GlcNAc(b1-2)Man(a1-3)]Man(b1-4)GlcNAc(b1-4)GlcNAc
Outline: as §1

[10] = molecular target: Gal(b1-4)GlcNAc(b1-3)Gal(b1-4)GlcNAc(b1-2)[Gal(b1-4)GlcNAc(b1-3)Gal(b1-4)GlcNAc(b1-6)]Man(a1-6)[Gal(b1-4)GlcNAc(b1-3)Gal(b1-4)GlcNAc(b1-2)Man(a1-3)]Man(b1-4)GlcNAc(b1-4)[Fuc(a1-6)]GlcNAc
Outline: as §1

[11] = molecular target: Gal(b1-4)GlcNAc(b1-3)Gal(b1-4)GlcNAc(b1-3)Gal(b1-4)GlcNAc
Outline: as §1

[12] = molecular target: Gal(b1-4)GlcNAc(b1-3)Gal(b1-4)GlcNAc(b1-3)Gal(b1-4)GlcNAc(b1-2)Man(a1-3)[Gal(b1-4)GlcNAc(b1-3)Gal(b1-4)GlcNAc(b1-3)Gal(b1-4)GlcNAc(b1-2)Man(a1-6)]Man(b1-4)GlcNAc(b1-4)GlcNAc
Outline: as §1

[13] = molecular target: Gal(b1-4)GlcNAc(b1-3)Gal(b1-4)GlcNAc(b1-3)Gal(b1-4)GlcNAc(b1-2)Man(a1-3)[Gal(b1-4)GlcNAc(b1-3)Gal(b1-4)GlcNAc(b1-3)Gal(b1-4)GlcNAc(b1-2)Man(a1-6)]Man(b1-4)GlcNAc(b1-4)[Fuc(a1-6)]GlcNAc
Outline: as §1

[14] = molecular target: Gal(b1-4)GlcNAc(b1-3)Gal(b1-4)GlcNAc(b1-3)Gal(b1-4)GlcNAc(b1-2)[Gal(b1-4)GlcNAc(b1-3)Gal(b1-4)GlcNAc(b1-3)Gal(b1-4)GlcNAc(b1-6)]Man(a1-6)[Gal(b1-4)GlcNAc(b1-3)Gal(b1-4)GlcNAc(b1-3)Gal(b1-4)GlcNAc(b1-2)Man(a1-3)]Man(b1-4)GlcNAc(b1-4)[Fuc(a1-6)]GlcNAc
Outline: as §1

[15] = molecular target: Gal(b1-4)GlcNAc(b1-3)Gal(b1-4)GlcNAc(b1-3)Gal(b1-4)GlcNAc(b1-3)Gal(b1-4)GlcNAc(b1-2)Man(a1-3)[Gal(b1-4)GlcNAc(b1-3)Gal(b1-4)GlcNAc(b1-3)Gal(b1-4)GlcNAc(b1-3)Gal(b1-4)GlcNAc(b1-2)Man(a1-6)]Man(b1-4)GlcNAc(b1-4)GlcNAc
Outline: as §1

[16] = molecular target: Gal(b1-4)GlcNAc(b1-3)Gal(b1-4)GlcNAc(b1-3)Gal(b1-4)GlcNAc(b1-3)Gal(b1-4)GlcNAc(b1-2)Man(a1-3)[Gal(b1-4)GlcNAc(b1-3)Gal(b1-4)GlcNAc(b1-3)Gal(b1-4)GlcNAc(b1-3)Gal(b1-4)GlcNAc(b1-2)Man(a1-6)]Man(b1-4)GlcNAc(b1-4)[Fuc(a1-6)]GlcNAc
Outline: as §1

[17] = molecular target: Gal(b1-4)GlcNAc(b1-3)Gal(b1-4)GlcNAc(b1-3)Gal(b1-4)GlcNAc(b1-3)Gal(b1-4)GlcNAc(b1-2)[Gal(b1-4)GlcNAc(b1-3)Gal(b1-4)GlcNAc(b1-3)Gal(b1-4)GlcNAc(b1-3)Gal(b1-4)GlcNAc(b1-6)]Man(a1-6)[Gal(b1-4)GlcNAc(b1-3)Gal(b1-4)GlcNAc(b1-3)Gal(b1-4)GlcNAc(b1-3)Gal(b1-4)GlcNAc(b1-2)Man(a1-3)]Man(b1-4)GlcNAc(b1-4)[Fuc(a1-6)]GlcNAc
Outline: as §1

[18] = molecular target: Gal(b1-4)GlcNAc(b1-3)Gal(b1-4)GlcNAc(b1-3)Gal(b1-4)GlcNAc(b1-3)Gal(b1-4)GlcNAc(b1-3)Gal(b1-4)GlcNAc(b1-2)Man(a1-3)[Gal(b1-4)GlcNAc(b1-3)Gal(b1-4)GlcNAc(b1-3)Gal(b1-4)GlcNAc(b1-3)Gal(b1-4)GlcNAc(b1-3)Gal(b1-4)GlcNAc(b1-2)Man(a1-6)]Man(b1-4)GlcNAc(b1-4)GlcNAc
Outline: as §1

[19] = molecular target: Gal(b1-4)GlcNAc(b1-3)Gal(b1-4)GlcNAc(b1-3)Gal(b1-4)GlcNAc(b1-3)Gal(b1-4)GlcNAc(b1-3)Gal(b1-4)GlcNAc(b1-2)Man(a1-3)[Gal(b1-4)GlcNAc(b1-3)Gal(b1-4)GlcNAc(b1-3)Gal(b1-4)GlcNAc(b1-3)Gal(b1-4)GlcNAc(b1-3)Gal(b1-4)GlcNAc(b1-2)Man(a1-6)]Man(b1-4)GlcNAc(b1-4)[Fuc(a1-6)]GlcNAc
Outline: as §1

[20] = molecular target: Gal(b1-4)GlcNAc(b1-3)Gal(b1-4)GlcNAc(b1-3)Gal(b1-4)GlcNAc(b1-3)Gal(b1-4)GlcNAc(b1-3)Gal(b1-4)GlcNAc(b1-2)[Gal(b1-4)GlcNAc(b1-3)Gal(b1-4)GlcNAc(b1-3)Gal(b1-4)GlcNAc(b1-3)Gal(b1-4)GlcNAc(b1-3)Gal(b1-4)GlcNAc(b1-6)]Man(a1-6)[Gal(b1-4)GlcNAc(b1-3)Gal(b1-4)GlcNAc(b1-3)Gal(b1-4)GlcNAc(b1-3)Gal(b1-4)GlcNAc(b1-3)Gal(b1-4)GlcNAc(b1-2)Man(a1-3)]Man(b1-4)GlcNAc(b1-4)[Fuc(a1-6)]GlcNAc
Outline: as §1

[21] = molecular target: Gal(b1-4)GlcNAc(b1-3)Gal(b1-4)GlcNAc(b1-3)Gal(b1-4)GlcNAc(b1-3)Gal(b1-4)GlcNAc(b1-3)Gal(b1-4)GlcNAc(b1-3)Gal(b1-4)GlcNAc(b1-2)Man(a1-3)[Gal(b1-4)GlcNAc(b1-3)Gal(b1-4)GlcNAc(b1-3)Gal(b1-4)GlcNAc(b1-3)Gal(b1-4)GlcNAc(b1-3)Gal(b1-4)GlcNAc(b1-3)Gal(b1-4)GlcNAc(b1-2)Man(a1-6)]Man(b1-4)GlcNAc(b1-4)GlcNAc
Outline: as §1

[22] = molecular target: Gal(b1-4)GlcNAc(b1-3)Gal(b1-4)GlcNAc(b1-3)GalNAc
Outline: as §1

[23] = molecular target: Gal(b1-4)GlcNAc(b1-3)Gal(b1-4)GlcNAc(b1-3)[Gal(b1-4)GlcNAc(b1-3)Gal(b1-4)GlcNAc(b1-6)]GalNAc
Outline: as §1

[24] = molecular target: Gal(b1-4)GlcNAc(b1-3)Gal(b1-4)GlcNAc(b1-6)[Gal(b1-3)]GalNAc
Outline: as §1

[25] = molecular target: Gal(b1-4)GlcNAc(b1-3)Gal(b1-4)[Fuc(a1-3)]GlcNAc(b1-3)Gal(b1-4)[Fuc(a1-3)]GlcNAc
Outline: as §1

[26] = molecular target: Gal(b1-4)GlcNAc(b1-3)GalNAc
Outline: as §1

[27] = molecular target: Gal(b1-4)GlcNAc(b1-3)[Fuc(a1-3)GlcNAc(b1-6)]Gal(b1-4)Glc
Outline: as §1

[28] = molecular target: Gal(b1-4)GlcNAc(b1-3)[Gal(b1-4)GlcNAc(b1-6)]Gal(b1-4)GlcNAc
Outline: as §1

[29] = molecular target: Gal(b1-4)GlcNAc(b1-3)[GlcNAc(b1-6)]Gal(b1-4)GlcNAc
Outline: as §1

[30] = molecular target: Gal(b1-4)GlcNAc(b1-6)Gal(b1-4)GlcNAc
Outline: as §1

[31] = molecular target: Gal(b1-4)GlcNAc(b1-6)GalNAc
Outline: as §1

[32] = molecular target: Gal(b1-4)GlcNAc(b1-6)[Gal(b1-3)]GalNAc
Outline: as §1

[33] = molecular target: Gal(b1-4)GlcNAc(b1-6)[Gal(b1-4)GlcNAc(b1-3)]GalNAc
Outline: as §1

[34] = molecular target: Gal(b1-4)GlcNAc6P
Outline: as §1

[35] = molecular target: Gal(b1-6)Gal
Outline: as §1

[36] = molecular target: Gal3S(b1-3)GalNAc
Outline: as §1

[37] = molecular target: Gal3S(b1-3)GlcNAc
Outline: as §1

[38] = molecular target: Gal3S(b1-3)[Fuc(a1-4)]GlcNAc
Outline: as §1

B1: Si Bti9 1b-V5-his (Solanum lycopersicum) (protein)
chain: MQCNRGCDLALASFYVWRGSNLTLISEMFSTSIADIVSYNNRDNIPNQDSVIAGTRINIPFRCDCLNDGEVLGHAFPYRVKSGDTYDLVARNYSDLTTAQWMMKFNSYPENNIPNTVNLSVVVNCSCGNSDVSKDFGLFVTYPVRAEDNLTSVASAANVSEDIIRRYNPAAVSILDIGQGIIYIPGRDRNGNFPPLPTSTDGLSGGAKKGGRADPAFLYKVVINSKLEGKPIPNPLLGLDSTRTGHHHHHH
glycan array binding signal (z-score) [1]: -0.378
glycan array binding signal (z-score) [2]: -0.309
glycan array binding signal (z-score) [3]: -0.268
glycan array binding signal (z-score) [4]: -0.249
glycan array binding signal (z-score) [5]: -0.16
glycan array binding signal (z-score) [6]: -0.25
glycan array binding signal (z-score) [7]: 1.57
glycan array binding signal (z-score) [8]: -0.052
glycan array binding signal (z-score) [9]: 1.13
glycan array binding signal (z-score) [10]: 0.273
glycan array binding signal (z-score) [11]: -0.285
glycan array binding signal (z-score) [12]: 0.058
glycan array binding signal (z-score) [13]: -0.157
glycan array binding signal (z-score) [14]: 0.218
glycan array binding signal (z-score) [15]: -0.234
glycan array binding signal (z-score) [16]: 0.046
glycan array binding signal (z-score) [17]: 0.207
glycan array binding signal (z-score) [18]: -0.09
glycan array binding signal (z-score) [19]: -0.258
glycan array binding signal (z-score) [20]: -0.167
glycan array binding signal (z-score) [21]: 0.07
glycan array binding signal (z-score) [22]: -0.204
glycan array binding signal (z-score) [23]: 0.207
glycan array binding signal (z-score) [24]: -0.04
glycan array binding signal (z-score) [25]: -0.264
glycan array binding signal (z-score) [26]: -0.258
glycan array binding signal (z-score) [27]: -0.305
glycan array binding signal (z-score) [28]: -0.26
glycan array binding signal (z-score) [29]: -0.082
glycan array binding signal (z-score) [30]: -0.272
glycan array binding signal (z-score) [31]: 2.79
glycan array binding signal (z-score) [32]: -0.243
glycan array binding signal (z-score) [33]: 0.584
glycan array binding signal (z-score) [34]: -0.289
glycan array binding signal (z-score) [35]: -0.242
glycan array binding signal (z-score) [36]: 0.177
glycan array binding signal (z-score) [37]: -0.08
glycan array binding signal (z-score) [38]: -0.213
